# In PubChem BioAssay AID504332 (National Center for Advancing Translational Sciences (NCATS), 2011):
# Several values for one entry are separate records, joined by “and”; a condition that tells them apart may be missing. Identical values can stand only once. The campaign covered roughly 350,000 compounds. About 31,000 (8.9%) were called active. Inconclusive means that the source gave no clear call. Such entries were picked first, then a sample of the others. Calls come from the whole dose curve; as a rule, active = well fitted inhibition curve with a large enough effect; inconclusive = small, poorly fitted or top-dose-only effect; inactive = no such curve, though single readings can be large or run the other way. Potencies beside an inconclusive call are fits to weak or partial responses and may not hold up.
# Molecular target: Histone-lysine N-methyltransferase EHMT2 (Homo sapiens) (UniProt Q96KQ7)
# UniProt Q96KQ7, sequence (Q96KQ7 whole entry, looked up): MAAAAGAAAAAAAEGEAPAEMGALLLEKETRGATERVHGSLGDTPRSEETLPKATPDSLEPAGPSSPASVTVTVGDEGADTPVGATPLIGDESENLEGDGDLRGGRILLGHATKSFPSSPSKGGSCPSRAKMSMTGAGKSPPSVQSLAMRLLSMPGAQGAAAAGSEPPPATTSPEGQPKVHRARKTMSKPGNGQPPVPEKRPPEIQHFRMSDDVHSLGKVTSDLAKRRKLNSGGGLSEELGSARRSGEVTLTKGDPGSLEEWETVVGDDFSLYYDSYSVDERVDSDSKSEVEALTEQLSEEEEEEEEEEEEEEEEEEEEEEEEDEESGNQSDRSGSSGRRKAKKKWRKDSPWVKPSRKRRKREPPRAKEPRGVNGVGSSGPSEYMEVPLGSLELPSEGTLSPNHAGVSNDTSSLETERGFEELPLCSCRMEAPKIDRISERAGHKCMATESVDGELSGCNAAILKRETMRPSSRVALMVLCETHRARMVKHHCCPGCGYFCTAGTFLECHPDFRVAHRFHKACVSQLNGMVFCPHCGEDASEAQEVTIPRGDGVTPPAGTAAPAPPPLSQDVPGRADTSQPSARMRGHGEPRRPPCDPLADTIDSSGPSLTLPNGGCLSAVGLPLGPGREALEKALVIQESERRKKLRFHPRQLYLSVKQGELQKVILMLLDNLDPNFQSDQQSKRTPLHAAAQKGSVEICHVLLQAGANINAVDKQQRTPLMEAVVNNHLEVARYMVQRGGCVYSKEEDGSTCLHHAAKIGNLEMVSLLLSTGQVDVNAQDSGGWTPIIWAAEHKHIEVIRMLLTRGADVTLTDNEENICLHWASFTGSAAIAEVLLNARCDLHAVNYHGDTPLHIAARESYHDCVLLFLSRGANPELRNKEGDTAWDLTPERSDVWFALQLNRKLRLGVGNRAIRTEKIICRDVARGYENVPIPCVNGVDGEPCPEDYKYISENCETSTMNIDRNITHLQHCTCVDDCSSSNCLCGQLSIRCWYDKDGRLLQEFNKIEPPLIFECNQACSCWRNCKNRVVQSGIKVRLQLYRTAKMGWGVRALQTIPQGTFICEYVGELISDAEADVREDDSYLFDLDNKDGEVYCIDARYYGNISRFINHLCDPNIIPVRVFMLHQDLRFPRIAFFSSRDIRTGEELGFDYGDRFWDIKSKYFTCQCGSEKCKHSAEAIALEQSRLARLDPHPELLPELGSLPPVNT
# Experiment: qHTS Assay for Inhibitors of Histone Lysine Methyltransferase G9a; note: nearly all actives have a fitted effect of over 75% in size
# Conditions: G9a H3K9 monomethylation, AlphaScreen, 2 h; activity, negative = inhibition: at 59 µM (top of the series) unless noted
# Procedure, shortened: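 Using a bead-based AlphaScreen, monomethylated H3K9 product from 2 h room-temperature reactions (G9a 20 nM, peptide 500 nM, SAM 20 uM) was detected with 0.5 ug/mL rabbit anti-H3K9me1 antibody.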
# % is set by controls: 0 for no effect and ±100 for the full control effect; potency is the fitted concentration of half-maximal effect; tags give direction and shape of the fitted curve.
Compound,"activity, negative = inhibition",Potency
CCCCOc1ccccc1NC(=O)C=C(C)C,inactive: -5.87% [at 12.7 µM],
Cc1ccc(CNC(=O)Cn2c(=O)ccc3cc(S(=O)(=O)N4CCC(C)CC4)ccc32)cc1,,"inconclusive: 39.8 µM [inhibitor, single point]"
CC(C)(C)OC(=O)C(Cl)(C(=O)OC(C)(C)C)c1ccc2nnnn2n1,,"inconclusive: 44.7 µM [inhibitor, partial curve, poor fit]"
CC1CCc2c(sc3nnn(CCCCOc4ccc(Cl)cc4)c(=O)c23)C1 (configuration not stated),,active: 12.6 µM
N#C/C(=C\c1ccc(Sc2ccc(Cl)cc2)o1)c1nc2ccccc2[nH]1,,"inconclusive: 39.8 µM [inhibitor, single point]"
COC(=O)Cn1c(CN2CCOCC2)nc2c1c(=O)[nH]c(=O)n2C,,"inconclusive: 89.1 µM [inhibitor, partial curve, poor fit]"
COCCn1nnnc1C(c1ccccc1OC)N1CCN(c2ccccc2F)CC1 (configuration not stated),,"inconclusive: 35.5 µM [inhibitor, single point]"
CCc1ccc(C2c3c(oc4ccc(F)cc4c3=O)C(=O)N2CCc2ccc(OC)cc2)cc1 (configuration not stated),,inactive
CC(C)CN(C(=O)c1ccc(S(=O)(=O)N2CCCCC2)cc1)C1CCS(=O)(=O)C1 (configuration not stated),,"inconclusive: 2.82 µM [inhibitor, full curve, poor fit]"
C=CCn1c(=O)/c(=C/c2cc(OC)c(OC)c(OC)c2)s/c1=C(/C#N)c1nc2ccccc2n1C,,"inconclusive: 20 µM [inhibitor, partial curve, poor fit]"
COc1ccc(CNc2cc(C)ccc2C)c(OC)c1OC,,"inconclusive: 5.62 µM [inhibitor, full curve, poor fit]"
O=C1CCC(=O)N1CC(=O)N(c1ccccc1)c1ccccc1,,"inconclusive: 89.1 µM [inhibitor, single point]"
Cc1onc(-c2ccccc2Cl)c1C(=O)N[C@H]1C(=O)N2[C@H]1SC(C)(C)[C@H]2C(=O)O,,inactive
CCOc1ccc(/C=C2/C(=O)N(c3ccc(OC)cc3)C(=S)N2CC(=O)OC)cc1OCC,,"inconclusive: 15.8 µM [inhibitor, single point]"
CC(=O)Nc1cccc(C(=O)OC(C)C(=O)Nc2ccc(S(=O)(=O)N3CCCC3)cc2)c1 (configuration not stated),,active: 50.1 µM
CC1CCN(CCOCCOc2ccccc2Br)CC1,,"inconclusive: 3.98 µM [inhibitor, full curve, poor fit]"
Cc1occc1C(=O)N/N=C/c1cccc2ccccc12,,inactive
COc1cc(NC(=O)c2cccs2)c(C(=O)OCC(=O)c2cc(C)n(-c3ccccc3)c2C)cc1OC,,"inconclusive: 4.47 µM [inhibitor, single point]"
Cc1nc2sccn2c(=O)c1S(=O)(=O)Nc1ccc(N2CCOCC2)cc1,,"inconclusive: 10 µM [inhibitor, partial curve, poor fit]"
COc1ccc(S(=O)(=O)N2CCCC(C(=O)NCc3ccncc3)C2)cc1Cl (configuration not stated),,"inconclusive: 1.78 µM [inhibitor, partial curve, poor fit]"
Nc1nnc(SCC(=O)Nc2ccc(N3CCOCC3)cc2)s1,,"inconclusive: 7.08 µM [inhibitor, partial curve, poor fit]"

Compound,"activity, negative = inhibition",Potency
Cc1ccccc1N1CCN(S(=O)(=O)C[C@]23CCC(CC2NC(=O)[C@@H](N)CCS(C)(=O)=O)C3(C)C)CC1 (some centres not stated),,"inconclusive: 70.8 µM [inhibitor, single point] and inconclusive: 14.1 µM [inhibitor, partial curve]"
O=C(CCl)NC1(C(F)(F)F)C(=O)Nc2c1c(=O)[nH]c(=O)n2-c1ccccc1 (configuration not stated),,"inconclusive: 70.8 µM [inhibitor, single point]"
COc1ccc(N(CC(C)C)S(=O)(=O)c2nnc(NC(=O)c3cccs3)s2)cc1,,inactive
COc1cc(Cl)c(S(=O)(=O)NCc2ccccn2)cc1Cl,,"inconclusive: 2.82 µM [inhibitor, partial curve, poor fit]"
Cc1cc(NN)nc(NS(=O)(=O)c2ccc(Cl)cc2)n1,,"inconclusive: 35.5 µM [inhibitor, partial curve, poor fit]"
CCCCN(C(=O)CSc1nnc2ccccn12)c1c(N)n(Cc2ccccc2)c(=O)[nH]c1=O,,"inconclusive: 11.2 µM [inhibitor, partial curve, poor fit]"
CCOC(=O)c1ccc(NC(=O)C(=O)NCc2ccc(/C=C(/C#N)C(=O)NCCOC)o2)cc1,,inactive
C=CCN1C(c2ccccc2)=CS/C1=C(\C#N)c1nnc2n1CCCCC2,,"inconclusive: 25.1 µM [inhibitor, single point]"
CC[C@H](C)[C@H](NC(N)=O)C(=O)Nc1ccccc1F,,inactive
O=C(CN1CCN(S(=O)(=O)c2ccccc2)CC1)Nc1ccc(N2CCOCC2)cc1,,"inconclusive: 14.1 µM [inhibitor, partial curve, poor fit]"
O=C1C=C(Nc2ccc(O)cc2)CC(c2ccco2)C1 (configuration not stated),,"inconclusive: 25.1 µM [inhibitor, single point]"
Cc1ccc(C(=O)N2CCc3cc(CNC(=O)c4ccc(Br)cc4)ccc32)cc1,,inactive
Cn1cc(Cl)c(C(=O)Nc2nc3ccccc3s2)n1,,"inconclusive: 56.2 µM [inhibitor, partial curve, poor fit]"
COc1cc([N+](=O)[O-])cc(/C=N/NC(=O)CC#N)c1O,,active: 50.1 µM
Cc1cccc(NC(=O)c2ccc3c(O)c(S(=O)(=O)c4ccccc4)c(=O)[nH]c3c2)c1C,,"inconclusive: 10 µM [inhibitor, partial curve]"
CC1=C(C(=O)OCc2ccccc2)N2C(=O)[C@@H](NC(=O)COc3ccccc3)[C@H]2SC1,,"inconclusive: 89.1 µM [inhibitor, single point]"
CCCCC/C=C\C/C=C\C/C=C\C=C\[C@@H](O)CCCC(=O)O,,inactive
O=C(NCCN1C(=O)S/C(=C\c2ccccc2)C1=O)c1cc(S(=O)(=O)N2CCOCC2)c(Cl)cc1Cl,,"inconclusive: 39.8 µM [inhibitor, single point]"
C/C(=N\NC(N)=S)c1ccc(Cl)s1,,"inconclusive: 31.6 µM [inhibitor, single point]"
COc1ccc(-n2c(C)cc(C(=O)COC(=O)Cc3n[nH]c(=O)c4ccccc34)c2C)cc1,,"inconclusive: 39.8 µM [inhibitor, single point]"
Cc1cccc2nc(Cn3c(=O)n(CCCC(=O)NCc4ccco4)c(=O)c4ccccc43)cc(=O)n12,,"inconclusive: 89.1 µM [inhibitor, single point]"

Compound,"activity, negative = inhibition",Potency
CCc1ccc(NC(=S)NC2CC3CCCC(C2)N3Cc2cccs2)cc1 (configuration not stated),,"inconclusive: 22.4 µM [inhibitor, single point]"
c1ccc(CSc2nnnn2-c2cccc3ccccc23)nc1,,"inconclusive: 50.1 µM [inhibitor, partial curve, poor fit]"
CC1(C)CC(=O)C(CC2=C(O)CC(C)(C)CC2=O)C(=O)C1,,"inconclusive: 20 µM [inhibitor, partial curve, poor fit]"
O=C(C1CCCN(S(=O)(=O)c2ccc([N+](=O)[O-])cc2)C1)N1CCCCC1 (configuration not stated),,inactive
CCN(C(=O)c1ccc(Cl)c([N+](=O)[O-])c1)c1ccccc1,,"inconclusive: 56.2 µM [inhibitor, partial curve, poor fit]"
CN1CCN(S(=O)(=O)c2csc(C(N)=O)c2)CC1,,"inconclusive: 44.7 µM [inhibitor, partial curve, poor fit]"
O=C(c1ccc2ncsc2c1)N1CCCCC1,,inactive
COc1ccc(C(C2C(=O)CC(C)(C)CC2=O)C2C(=O)CC(C)(C)CC2=O)cc1,,active: 44.7 µM
COCCNC(=O)CCn1c(=O)c2cc(OC)c(OC)cc2n(CC(=O)Nc2ccccc2C)c1=O,,inactive
Cc1oc(-c2cccc(Cl)c2)nc1CN1CCCC(C(=O)NCCc2ccc(Cl)cc2)C1 (configuration not stated),,"inconclusive: 15.8 µM [inhibitor, partial curve, poor fit]"
CCOC(=O)c1c(NC(=O)COc2ccc(Br)cc2)sc2c1CCCC2,,"inconclusive: 35.5 µM [inhibitor, single point]"
O=C(O)c1ccc(CSc2nc3ccc(N4C(=O)C5C6C=CC(C6)C5C4=O)cc3s2)cc1 (configuration not stated),,inactive
Cc1cc(NC(=O)c2ccc(Cn3cc([N+](=O)[O-])cn3)o2)no1,,inactive
Cc1ccc(NC(=S)N=Nc2c(O)n(C)c3ccc(S(=O)(=O)N4CCOCC4)cc23)cc1,,"inconclusive: 79.4 µM [inhibitor, single point]"
CCCN(CCC)CC(O)COc1ccc2c(c1)OCO2 (configuration not stated),,"inconclusive: 79.4 µM [inhibitor, partial curve, poor fit]"
CCS(=O)(=O)N1Cc2ccccc2CC1C(=O)N(C)CC(=O)Nc1ccc(OC)cc1 (configuration not stated),,"inconclusive: 4.47 µM [inhibitor, single point]"
O=C(/C=C/c1ccco1)NC(=S)Nc1ccccc1Br,,"inconclusive: 70.8 µM [inhibitor, single point]"
CC(=O)Oc1ccc(N2C(=O)C3C4C=CC(C5CC45)C3C2=O)cc1[N+](=O)[O-] (configuration not stated),,"inconclusive: 7.08 µM [inhibitor, full curve, poor fit]"
COc1ccc(/C=N/NC(=O)c2ccc(COc3cccc4cccnc34)cc2)cc1O,,"inconclusive: 70.8 µM [inhibitor, partial curve, poor fit]"
O=P(O)(O)c1ccccc1OCCOCCOc1ccccc1P(=O)(O)O,,"inconclusive: 0.562 µM [inhibitor, partial curve, poor fit]"
